PMC6919601, “Identification of Plasmodium dipeptidyl aminopeptidase allosteric inhibitors by high throughput screening” (PLoS ONE, 2019)
Hit rate of the full screen: of about 110,000 compounds, about 230 (0.21%) showed an effect of 50% or more. Some of the results follow.

What follows are compounds tested against DPAP1 (Plasmodium falciparum, UniProt Q8IIJ9) (assay: primary screen, percent inhibition; read by cleavage of a fluorogenic dipeptide substrate; higher = more effect of the substance).
DPAP1, sequence (Q8IIJ9 whole entry, looked up): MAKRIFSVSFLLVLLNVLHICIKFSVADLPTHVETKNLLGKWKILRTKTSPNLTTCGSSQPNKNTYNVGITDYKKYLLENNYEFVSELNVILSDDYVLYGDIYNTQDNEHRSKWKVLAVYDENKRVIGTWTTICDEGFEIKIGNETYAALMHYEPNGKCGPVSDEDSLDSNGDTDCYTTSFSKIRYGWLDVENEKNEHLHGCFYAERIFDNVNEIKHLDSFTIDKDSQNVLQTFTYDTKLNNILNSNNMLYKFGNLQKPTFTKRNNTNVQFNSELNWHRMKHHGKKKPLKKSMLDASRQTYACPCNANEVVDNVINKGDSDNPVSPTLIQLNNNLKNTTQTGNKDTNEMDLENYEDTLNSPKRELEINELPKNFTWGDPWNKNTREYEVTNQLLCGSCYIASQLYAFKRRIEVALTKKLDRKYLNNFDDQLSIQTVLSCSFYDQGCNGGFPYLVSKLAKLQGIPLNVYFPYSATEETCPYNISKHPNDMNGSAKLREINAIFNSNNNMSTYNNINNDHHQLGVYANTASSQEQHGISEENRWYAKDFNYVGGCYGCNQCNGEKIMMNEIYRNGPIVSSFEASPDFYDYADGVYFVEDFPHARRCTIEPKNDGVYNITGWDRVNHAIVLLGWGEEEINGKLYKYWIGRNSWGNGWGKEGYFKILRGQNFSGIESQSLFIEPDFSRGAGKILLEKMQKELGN
Parameters: species or system P. falciparum D10 trophozoite lysates; single well
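Further: 30 min substrate incubation versus DMSO and 10 µM JCP410 controls.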

| SMILES | % Inhibition @ 10 uM [%] |
| --- | --- |
| NS(=O)(=O)c1ccc(NC(=O)/C(=C/c2ccccc2Cl)NC(=O)c2ccccc2)cc1 | 2.01 |
| CC1=C(C(=O)Nc2cccnc2)C(c2ccc3c(c2)OCO3)n2nc(-c3cccs3)nc2N1 (stereo not drawn) | -9.77 |
| CC1(C)CC(=O)C(/C=N/c2ccccc2C(=O)c2ccccc2)=C(O)C1 | 1.37 |
| COc1c(C)cc(NS(=O)(=O)c2ccc(SC)cc2)cc1C | 3.99 |
| CN1C(=O)C(=Cc2ccc(SCc3ccco3)o2)C(=O)N(C)C1=O | 16.3 |
| COc1cccc(Nc2cc(C)c3ccccc3n2)c1 | -1.37 |
| CCOc1cc(C(=O)Nc2ccc(C)cn2)cc(OCC)c1OCC | -1.79 |
| O=Cc1ccc(Sc2nnc(-c3ccccc3)n2-c2ccccc2)o1 | -0.597 |
| CC1=C(C(=O)Nc2ccc(F)cc2F)C(c2ccc(F)cc2)C2=C(O)CC(C)(C)CC2=N1 (stereo not drawn) | -2.78 |
| c1ccc(CN2CCN(c3nnc(-n4cccc4)s3)CC2)cc1 | -3.47 |
| COC(C(=O)OC(C)CN(C)C)(c1ccccc1)c1ccccc1 (stereo not drawn) | -5.33 |
| O=C(Cn1cnc2cc(Cl)ccc2c1=O)Nc1ccc2c(c1)OCO2 | 3.53 |
| CCOC(=O)c1cccnc1SCC(=O)O | 0.387 |
| Cc1cccc(C)c1NC(=O)Nc1ccccc1 | -1.93 |
| CC(C)NCC1(O)CC2C3CCC4CC(O)CCC4(C)C3CCC2(C)C1 (stereo not drawn) | 3.32 |
| CC12CCC(C(=O)O)(c3nc4ccccc4nc31)C2(C)C (stereo not drawn) | 3.08 |
| CCN(Cc1ccccc1)C1CCCCC1NS(=O)(=O)c1ccc(Cl)cc1 (stereo not drawn) | -2.4 |
| CCOc1ccc(C2c3c(oc4ccccc4c3=O)C(=O)N2c2nccs2)cc1 (stereo not drawn) | -3.87 |
| O=C1C2CCCN2C(=O)N1CCCCN1CCN(c2ccc(F)cc2)CC1 (stereo not drawn) | 1.64 |
| O=C(O)CSc1nnc(-c2ccncc2)n1-c1ccccc1 | -3.95 |
| Cc1cc(Cl)ccc1OC(C)C(=O)N1CCN(Cc2ccccc2)CC1 (stereo not drawn) | -8.46 |
| CCOc1ccccc1C(=O)NCc1ccccc1 | -3.26 |
| COc1ccccc1NC(=O)c1sc2nc3c(cc2c1N)CCC3 | 7.71 |
| CCCNC(=O)c1c(NC(=O)c2ccccc2C)sc2c1CCC2 | -5.98 |
| Cc1cc(NC(=O)COc2ccc(F)cc2)n(Cc2ccc(F)cc2)n1 | -1.37 |

| SMILES | % Inhibition @ 10 uM [%] |
| --- | --- |
| O=C(C1=C(O)C(=O)N(CCCn2ccnc2)C1c1ccc(Cl)cc1)c1cc2ccccc2o1 (stereo not drawn) | 8.74 |
| COc1cc(/C=C2\NC(=S)NC2=O)cc(OC)c1OC | -2.35 |
| O=C(NCC1CCN(Cc2ccc(F)cc2)CC1)C(c1ccccc1)N1Cc2ccccc2C1=O (stereo not drawn) | 1.6 |
| COc1ccc(S(=O)(=O)NCCc2nnc3ccc(SCC(N)=O)nn23)cc1 | 0.857 |
| Cc1cc(C(F)(F)F)nn1CC(=O)N1CCOCC1 | 0.0538 |
| Cc1c(C(c2ccc3c(c2)OCO3)c2c(C)n(C)n(-c3ccccc3)c2=O)c(=O)n(-c2ccccc2)n1C | 3.74 |
| O=c1c(Cl)c(NCCO)cnn1C12CC3CC(CC(C3)C1)C2 | 3.32 |
| O=C(CCCn1sc2ccccc2c1=O)NCCCN1CCc2ccccc2C1 | -1.28 |
| N#Cc1c(SCC(N)=O)nsc1SCc1ccccc1Cl | -2.07 |
| Cc1nc(NC(=O)C2CC3CCC2C3)sc1C (stereo not drawn) | 2.39 |
| COc1cccc(NC(=O)c2cccc([N+](=O)[O-])c2)c1 | 1.91 |
| NS(=O)(=O)c1ccc(NC(=O)[C@@H]2CCCC[C@@H]2C(=O)O)cc1 | -1.84 |
| COc1ccc2nc3c(O)n(CCCN(C)C4CCCCC4)cnc-3c2c1 | 1.64 |
| COc1cccc(C(=O)N2CCC3(CC2)N=C(c2ccc(Cl)cc2)C(=O)N3)c1 | 0.453 |
| C=CCc1cc(/C=C2/C(=N)N3OC(C)=CC3=NC2=O)cc(OC)c1OCCOc1ccccc1Cl | -7.05 |
| CCOc1nc(-c2ccc(Cl)cc2)ccc1-c1noc(-c2ccncc2)n1 | 3.73 |
| COc1ccccc1C(=O)Nc1cccc(Br)c1 | -4.35 |
| CC1CCCCN1S(=O)(=O)c1ccc(Cl)c([N+](=O)[O-])c1 (stereo not drawn) | -0.856 |
| O=C(NCCO)c1nnc(-c2ccccc2)o1 | -4.47 |
| Cc1ccc(NC(=O)c2cnn(-c3ccccc3)c2C)cc1 | 3.72 |
| Cc1cccc(C)c1NC(=O)Nc1cccc2ccccc12 | -1.62 |
| O=C(O)CCCC(=O)Nc1ccc(F)cc1 | 3.16 |
| Cc1ccc(-c2c(C(=O)NCCC(C)C)oc(=O)c3ccccc23)cc1 | 1.9 |
| CCC(=O)N1C2NC3C4NC2N(C(=O)CC)C1C(N3C(=O)CC)N4C(=O)CC | 4.03 |
| COc1ccccc1OCC(O)CN1CCN(C(=O)c2ccccc2)CC1 (stereo not drawn) | -17.9 |

| SMILES | % Inhibition @ 10 uM [%] |
| --- | --- |
| CCCCn1/c(=N\C(C)=O)c(C(=O)OCC)cc2c(=O)n3ccccc3nc21 | 1.26 |
| O=C1c2cccc3cccc(c23)C(=O)N1CCOc1ccccc1 | -5.36 |
| CCOC(=O)C1=C(N)OC2=C(C(=O)CCC2)C1c1cc(CN2CCOCC2)cs1 (stereo not drawn) | -2.28 |
| O=C(CCN1C(=O)c2ccccc2C1=O)NC(=O)NC(c1ccccc1)c1ccccc1 | 1.43 |
| CCOC(=O)c1[nH]c(C)c(C(=O)N(C)CCC#N)c1C | -3.44 |
| COc1cc(OC)c(C2C(C#N)=C(N)Oc3[nH]nc(C)c32)c(OC)c1 (stereo not drawn) | -5.14 |
| CCOC(=O)c1[nH]c(C(=O)O)c(CC)c1C | 1.26 |
| CCOC(=O)c1sc(NC(=O)C(C)Oc2ccc(OC)cc2)nc1C (stereo not drawn) | 13.2 |
| COc1cc(C2c3c(oc4ccccc4c3=O)C(=O)N2c2nc(C)c(C(C)=O)s2)ccc1O (stereo not drawn) | 8.51 |
| Cc1c(C(=O)O)oc2c3c(ccc12)OCCO3 | 1.29 |
| COc1cccc(-c2cc(C(=O)Nc3cccnc3)c3ccccc3n2)c1 | -3.24 |
| CCc1ccc(S(=O)(=O)NCC(=O)O)cc1 | 3.67 |
| COCCN1C(=O)C(O)=C(C(=O)c2ccc(Cl)cc2)C1c1ccc(Br)cc1 (stereo not drawn) | -3.45 |
| COC(=O)c1cc(S(=O)(=O)Nc2ccc(C)cn2)c[nH]1 | -8.49 |
| Cc1ccc(C(=O)NCCNS(C)(=O)=O)cc1 | -1.33 |
| C=C(c1ccccc1C)[n+]1ccccc1 | -8.48 |
| CC1CCN(S(=O)(=O)c2ccc(-c3csc(-c4cccnc4)n3)cc2)CC1 | 0.913 |
| CC1=C(C(=O)Nc2ccccn2)C(c2ccc(Br)s2)C2=C(O)CC(C)(C)CC2=N1 (stereo not drawn) | 2.01 |
| Cc1oc(-c2ccc(C(=O)NCCC3=CCCCC3)cc2)nc1CS(=O)(=O)c1ccccc1 | 4.6 |
| O=C(/C=C/c1ccco1)N1CCN(C(c2ccccc2)c2ccccc2)CC1 | 0.222 |
| C=CCN1C(=O)S/C(=C/c2ccc(-c3ccccc3C#N)o2)C1=O | -4.39 |
| CN1CCCN(Cc2ccco2)CC1 | -6.47 |
| COc1cc(-c2nnc3s/c(=C\c4ccccc4Cl)c(=O)n23)cc(OC)c1OC | 1.96 |
| COc1ccc2nc(NS(=O)(=O)c3ccc(Cl)cc3)c(NCc3ccc4c(c3)OCO4)nc2c1 | -2.19 |
| CCC(Cc1cc(OC)c(C)cc1OC)NC(=O)c1ccc(F)c(F)c1 (stereo not drawn) | -2.39 |

| SMILES | % Inhibition @ 10 uM [%] |
| --- | --- |
| CCN(CC)C(=O)c1sc(NC(=O)c2cccc(Br)c2)c(C#N)c1C | 0.658 |
| COc1ccc(OCC(=O)Nc2ccc(S(=O)(=O)N3CCCC3)cc2)cc1 | 4.28 |
| CCOc1ccc(CC(=N)C2=C(O)CC(C)(C)CC2=O)cc1OCC | 4.19 |
| CCOC(=O)C1=C(C)N(c2ccc(C)cc2)C(=O)/C1=C\c1ccc(C(C)C)cc1 | -9.17 |
| COc1ccc(C2C3=C(O)CC(C)(C)CC3=NC(C)=C2C(=O)Nc2ccccc2OC)cc1 (stereo not drawn) | -4.03 |
| Cc1cccc2sc(NC3(C(F)(F)F)N=C4SCCN4C3=O)nc12 (stereo not drawn) | 2.57 |
| COc1ccc(C2C(C(C)=O)=C(O)C(=O)N2CCc2ccccc2)cc1 (stereo not drawn) | -1.28 |
| CC12CN3CC(C)(CN(C1)C3C1CCCCC1)C2=O (stereo not drawn) | 2.17 |
| CCC(CC)C(=O)Nc1nnc(Cc2ccc(OC)cc2)s1 | 5.44 |
| COc1ccc(-c2cc(C(=O)Nc3cc(C)on3)no2)cc1OC | -4.43 |
| CCc1c(C#N)c(SCCC(=O)Nc2cccc(OC)c2)nc2c1C(=O)CC(C)(C)C2 | 2.44 |
| CC1CCN(S(=O)(=O)c2ccc(NC(=O)c3c(Cl)cccc3Cl)cc2)CC1 | -4.91 |
| O=C(NCCc1cccc(Cl)c1)c1ccc(Br)o1 | -3.24 |
| CC(C)(CO)NCc1c(OCc2ccccc2)ccc2ccccc12 | 3.56 |
| CS(=O)(=O)N1CCN(c2ccc(NC(=O)c3cccs3)cc2)CC1 | -2.29 |
| O=C(NCc1ccco1)c1ccc(CNS(=O)(=O)c2cccc(Cl)c2)cc1 | 0.795 |
| Cc1ccc(C)c(NC(=O)C2CC(=O)N(c3ccc(Cl)cc3)C2)c1 (stereo not drawn) | 0.812 |
| COc1ccc(/C=c2\sc3nc(-c4ccc(OC(C)C)cc4)nn3c2=O)c(OC)c1 | -1.25 |
| COc1ccc(Cl)cc1NC(=O)CCN1CCN(C)CC1 | -1.28 |
| CC(C)Cn1cc(NC(=O)NCCc2c[nH]c3ccccc23)c2ccccc2c1=O | -5.55 |
| O=C1C2C3C=CC(C2C(=O)N1c1ccncc1)C1C(=O)N(c2ccncc2)C(=O)C31 (stereo not drawn) | -2.37 |
| COc1ccc(/C=C2\SC(Nc3ccc(F)cc3)=NC2=O)cc1 | 2.43 |
| OC1CCCN(Cc2ccccc2C(F)(F)F)C1 (stereo not drawn) | -0.969 |
| Cc1cc(O)c(C2=Nc3ccccc3SC(c3ccccc3Br)C2)c(=O)o1 (stereo not drawn) | 6.11 |
